The list shows a part of the results.
Assays:
HSkMC = human skeletal muscle cells; test: cytotoxicity call (relative viability < 0.9); conditions: 10 µM
HepG2 = test: cytotoxicity call (relative viability < 0.9); conditions: 10 µM
S. aureus RN4220 = test: growth inhibition call (relative growth <= 0.2); conditions: 50 µM

Structure (SMILES) | cytotoxicity call (HSkMC) | cytotoxicity call (HepG2) | growth inhibition call (S. aureus RN4220)
COc1ccc(S(=O)(=O)N(C)C[C@H]2OCc3cn(nn3)CCCC(=O)N([C@H](C)CO)C[C@@H]2C)cc1 | inactive | inactive | inactive
Cc1ccc(S[C@]2(C(=O)O)CC(=O)N(Cc3ccccc3Cl)[C@@H]2c2ccc(CO)cc2I)cc1 | inactive | inactive | inactive
C[C@H](CO)N1C[C@H](C)[C@H](CN(C)C(=O)Nc2ccc3c(c2)OCO3)OCCCC[C@H](C)Oc2ccc(NC(=O)c3ccccc3)cc2C1=O | inactive | inactive | inactive
O=C(C[C@@H]1C=C[C@H](NC(=O)Nc2ccc3c(c2)OCO3)[C@H](CO)O1)NCCCN1CCOCC1 | inactive | inactive | inactive
CC(C)NC(=O)N1Cc2cc(C(=O)NCC(F)(F)F)nc(-c3cccc(-c4cc5ccccc5o4)c3)c2[C@H]1CCO | inactive | inactive | inactive
CN(CC(=O)NCc1ccccn1)S(=O)(=O)c1cc(Br)cnc1N | inactive | active | inactive
CN(C)CCCC[C@@H]1NC(=O)[C@@H]2C[C@H](C(=O)NCCCCCCNC(=O)CS)[C@H](c3ccc(O)cc3)N2C1=O | inactive | inactive | inactive
C[C@H](CO)N1C[C@H](C)[C@H](CN(C)S(C)(=O)=O)Oc2ccc(NS(=O)(=O)c3ccccc3)cc2CC1=O | inactive | inactive | inactive
CC(C)=CCC[C@]1(C)[C@@H](CC=C(C)C)C[C@]2(CC=C(C)C)C(=O)C(CC=C(C)C)=C(O)[C@@]1(C(=O)C(C)C)C2=O | inactive | inactive | active
CCS(=O)(=O)Nc1ccc2c(c1)C(=O)N(C)[C@@H]1CC[C@H](CC(=O)NCc3ccc(OC)cc3)O[C@@H]1CO2 | inactive | inactive | inactive
Cc1cc(NC(=O)CSc2nnc[nH]2)no1 | inactive | inactive | inactive
Cc1ccc(S(=O)(=O)Nc2ccc3c(c2)C(=O)N([C@@H](C)CO)C[C@H](C)[C@@H](CN(C)C(=O)CCC(F)(F)F)OCCCC[C@H](C)O3)cc1 | inactive | inactive | inactive
O=C(C[C@H]1C[C@H]2c3cc(NC(=O)NC4CCCC4)ccc3O[C@H]2[C@H](CO)O1)NCc1ccc(Oc2ccccc2)cc1 | inactive | active | inactive
C[C@@H]1CN([C@H](C)CO)C(=O)c2cc(NS(=O)(=O)c3cccs3)ccc2O[C@@H](C)CCCCO[C@@H]1CN(C)CC1CCCCC1 | inactive | inactive | inactive
COCCOC(=O)N1C(=O)[C@@]2(c3cc(C#CC4(O)CCCCCC4)ccc31)[C@H](c1ccc(OCCO)cc1)N1[C@H](c3ccccc3)[C@H](c3ccccc3)OC(=O)[C@H]1[C@@H]2C(=O)N1CCN(c2ncccn2)CC1 | inactive | inactive | inactive
C[C@H](O)C#Cc1ccc2c(c1)O[C@H](CN(C)C)[C@H](C)CN([C@@H](C)CO)S2(=O)=O | inactive | inactive | inactive
COC(=O)c1cn(CC(=O)Nc2ccon2)nn1 | inactive | inactive | inactive
COc1ccccc1-c1ccc2c(c1)O[C@H](CN(C)S(=O)(=O)c1ccccc1)[C@@H](C)CN([C@@H](C)CO)S2(=O)=O | inactive | inactive | inactive
C[C@H](CO)N1C[C@H](C)[C@@H](CN(C)C(=O)Nc2ccc3c(c2)OCO3)OCCCC[C@H](C)Oc2ccc(NC(=O)Nc3ccccc3)cc2C1=O | inactive | inactive | inactive
COc1ccc(NC(=O)Nc2ccc3c(c2)C(=O)N([C@H](C)CO)C[C@@H](C)[C@H](CN(C)C(=O)NC2CCCCC2)OCCCC[C@@H](C)O3)cc1 | inactive | inactive | inactive
C[C@@H]1CN([C@@H](C)CO)C(=O)c2cc(NC(=O)Nc3ccccc3)ccc2O[C@@H](C)CCCCO[C@H]1CN(C)C(=O)Cc1ccccc1 | inactive | inactive | inactive
C[C@@H]1CCCCO[C@H](CN(C)Cc2ccncc2)[C@H](C)CN([C@@H](C)CO)C(=O)c2cc(NS(C)(=O)=O)ccc2O1 | inactive | inactive | inactive
O=C(C[C@H]1CC[C@@H]2[C@H](COC[C@H](O)CN2Cc2cc(F)ccc2F)O1)N[C@H]1CCN(Cc2ccccc2)C1 | inactive | inactive | inactive
O=C(C[C@@H]1CC[C@H]2[C@@H](COC[C@H](O)CN2S(=O)(=O)c2cccc(F)c2)O1)NCc1ccncn1 | inactive | inactive | inactive
Cc1noc(C)c1NC(=O)Nc1ccc2c(c1)CC(=O)N([C@H](C)CO)C[C@H](C)[C@@H](CN(C)C(=O)NC(C)C)O2 | inactive | inactive | inactive

Source: the antibiotic and cytotoxicity screens of Wong et al. (2023)
